Test results taken from PubChem BioAssay AID463173 (ICCB-Longwood Screening Facility, Harvard Medical School, 2010).
The campaign covered roughly 52,000 compounds. About 4,300 (8.3%) were called active. No stated cut-off is given here; in the data, active means survival mostly below about 52% (no sharp cut-off); inactive means mostly above about 56%. Some of the results follow.

System: DeltatarO mutant
Assay: S. aureus survival, RN4220 and DeltatarO strains – OD600, teichoic acid synthesis inhibitors, primary screen (AID 463173)
Settings: S. aureus RN4220 wild type/DeltatarO growth, OD600, 18 h, active compounds read low, screened at 18.75 µg/mL (by protocol)

Row | SMILES | survival
1 | Cc1ccc(NC(=O)Cn2cc(S(=O)(=O)N3CCN(c4ccccc4F)CC3)c3ccccc3c2=O)cc1F | inactive: 85%
2 | Cc1csc2nc(COc3ccc(NC(=O)COc4ccc(F)cc4)cc3)cc(=O)n12 | inactive: 66%
3 | COc1ccc(N2CCN(C(CNC(=O)c3ccc(C)cc3)c3ccc4c(c3)OCO4)CC2)cc1 (stereo not given) | inactive: 95%
4 | Oc1ccc(-c2csc(-c3ccccc3)n2)cc1O | inactive: 111%
5 | Cc1cc2c(cc1NC(=O)c1ccc(C(C)(C)C)cc1)n(C)c(=O)c(=O)n2C | inactive: 84%
6 | CC(C)c1ccc(CNc2nc(-c3ccco3)nn2S(=O)(=O)c2ccccc2)cc1 | inactive: 84%
7 | CCOc1ccccc1CNC(=O)c1nn(C)c2c1CS(=O)(=O)c1ccccc1-2 | inactive: 101%
8 | N#Cc1ccccc1NC(=O)CC1Nc2ccccc2NC1=O (stereo not given) | inactive: 98%
9 | CCc1cccc2c(=O)c(C(=O)N3CCCCC3)c[nH]c12 | inactive: 96%
10 | CN1CCN(C(=O)c2cnn(-c3cccc(F)c3)c2C2CCN(C(=O)OC(C)(C)C)CC2)CC1 | inactive: 82%
11 | Cc1ccc(C)c(CSc2c(C(C)C)cnc3c2c(=O)n(C)c(=O)n3C)c1 | inactive: 104%
12 | CCOc1nc(NCCN2CCOCC2)nc(NC(C)C)n1 | inactive: 92%
13 | O=C1CC(c2ccccc2)Cc2[nH]c(=O)c(-c3nc(-c4ccc(F)cc4)cs3)cc21 (stereo not given) | inactive: 154%
14 | CSc1ccc(NC(=O)C2CC(O)CN2C(=O)Nc2ccccc2)cc1 (stereo not given) | inactive: 109%
15 | O=C(CN1C(=O)COc2ccc(S(=O)(=O)N3CCCC3)cc21)N1CCN(c2ccccc2F)CC1 | inactive: 89%
16 | Cc1ccccc1-c1nc(CS(=O)CC(=O)NCCc2ccc(Cl)cc2)c(C)o1 (stereo not given) | inactive: 112%
17 | CC(C)Oc1ccc(CNC(=O)C2COc3ccccc3C2)cc1 (stereo not given) | inactive: 58%
18 | COc1ccc(-c2noc(-c3ccc(N4CCCCC4)c([N+](=O)[O-])c3)n2)cc1 | active: 37%
19 | CCOC(=O)c1cnc2ccc(OCC)cc2c1N1CCN(c2cccc(Cl)c2)CC1 | active: 3%
20 | O=C1CN(C(=O)C2CCCCC2)C(c2ccccc2)c2cc(F)ccc2N1 (stereo not given) | inactive: 70%
21 | CS(=O)(=O)N1CCN(CC(=O)NC2CCCCC2)CC1 | inactive: 73%
22 | Cc1ccc(-c2cc(C(=O)Oc3ccccc3)c3cccc(C)c3n2)cc1 | inactive: 50%
23 | O=C1CC(c2ccccc2)NC(=S)N1 (stereo not given) | inactive: 68%

Row | SMILES | survival
24 | COC(=O)c1cc(S(=O)(=O)N2CCN(c3ccc(C)cc3C)CC2)cn1C | inactive: 66%
25 | Cc1sc(-c2cc3ccccc3oc2=O)nc1-c1ccc(Cl)cc1 | inactive: 93%
26 | O=C(NCc1ccccc1)C(=O)NCC(c1ccco1)S(=O)(=O)c1ccccc1 (stereo not given) | inactive: 76%
27 | COc1ccc(N2CCN(C(CNC(=O)C(=O)NCc3ccc(F)cc3)c3cccnc3)CC2)cc1 (stereo not given) | inactive: 59%
28 | CCc1ccc(NC(=O)N(Cc2c[nH]c3ccccc23)C2CCCCCC2)cc1 | inactive: 102%
29 | CCCCN1C(=O)C(O)(c2c(C)[nH]c3ccccc23)c2cc(Br)ccc21 (stereo not given) | active: 27%
30 | Cc1cc2nn(-c3ccc(F)cc3)nc2cc1NC(=O)c1cc(Cl)ccc1Cl | inactive: 141%
31 | Cc1cc(OCC(=O)NCC2(N(C)C)CCCCC2)cc(C)c1Cl | inactive: 91%
32 | CCN1CCN(C(c2cccc(Cl)c2)c2c(O)cc(C)n(CCOC)c2=O)CC1 (stereo not given) | inactive: 80%
33 | Cc1ccc(CCNC(=O)CN2C(=O)COc3ccc(S(=O)(=O)N4CCC(C)CC4)cc32)cc1 | inactive: 92%
34 | CCn1cc(C(=O)NCCCN(CC(C)C)CC(C)C)c(=O)c2cc(S(=O)(=O)N3CCc4ccccc4C3)ccc21 | inactive: 89%
35 | Cc1ccc(-c2nnc(SCC(=O)NCCC(C)C)nc2-c2ccc(C)cc2)cc1 | inactive: 104%
36 | COc1cccc(C2=NS(=O)(=O)N(C)C(C(=O)Nc3cccc(O)c3)=C2)c1 | inactive: 70%
37 | COc1ccc(CC(=O)Nc2ccc(-c3nc4ccccc4s3)cc2Cl)cc1 | inactive: 69%
38 | COc1ccc(Cl)cc1NC(=O)CSc1nnc(C)n2c1cc1occc12 | inactive: 50%
39 | Cc1cc(NC(=O)C2C3C(=O)N(c4ccccc4Cl)C(C(=O)NC(C)(C)C)C34C=CC2(C)O4)no1 (stereo not given) | inactive: 108%
40 | CCN(CC)CCCN1C(=O)C2C3C=CC(C3)C2C1=O (stereo not given) | inactive: 103%
41 | COC(=O)c1cccc(NC(=O)COC(=O)c2ccco2)c1 | inactive: 75%
42 | O=S(=O)(NCCc1csc(-c2ccc(F)cc2)n1)c1ccc(F)cc1F | inactive: 87%
43 | COc1ccc(N2CC(NC(=O)c3cccs3)CC2=O)cc1OC (stereo not given) | inactive: 89%
44 | COc1ccc(-n2ncc(C(=O)Nc3ccc(C)cc3Cl)c2C2CCN(C(=O)OC(C)(C)C)CC2)cc1 | inactive: 83%
45 | CCCCn1c(SCC(=O)Nc2ccccc2)nc2ccccc2c1=O | inactive: 94%
46 | CCc1ccc(-c2[nH]c3c(c2-c2c(-n4cccc4)n(C)c(=O)[nH]c2=O)c(=O)[nH]c(=O)n3C)cc1 | inactive: 65%

Row | SMILES | survival
47 | O=C(Nc1nnc(S(=O)(=O)N2CCCCC2)s1)c1ccc(Cl)cc1 | active: 37%
48 | CC(=O)Nc1ccc(NS(=O)(=O)c2ccc3c(c2)CCCN3C(C)=O)cc1 | inactive: 87%
49 | COc1ccc(S(=O)(=O)NCC(c2ccco2)S(=O)(=O)c2ccc(C)cc2)cc1C (stereo not given) | inactive: 103%
50 | CCOc1ccc(NC(=O)CSc2nnc(CC)c(CC)n2)cc1 | inactive: 85%
51 | CCN(CC)CCNC(=O)C1CCCN(c2nnc(C)c3c(C)n(-c4ccc(Cl)cc4)nc23)C1 (stereo not given) | inactive: 113%
52 | CCN(CC)C(=O)CSc1nnc(COc2ccc(Br)cc2)o1 | inactive: 108%
53 | O=C(NCC1CCCO1)c1cccc(C(=O)NCC2CCCO2)c1 (stereo not given) | inactive: 100%
54 | Cc1cccc(C)c1NC(=O)C1CCCN(S(=O)(=O)c2c(C)noc2/C=C/N(C)C)C1 (stereo not given) | inactive: 92%
55 | Cc1cc(C=C(C#N)C#N)c(C)n1-c1ccc(S(N)(=O)=O)cc1 | inactive: 97%
56 | COc1ccccc1CNC(=O)c1ccc(NC(=O)N2CC(C)Sc3ccccc32)cc1 (stereo not given) | inactive: 66%
57 | CCc1ccc(NC(=O)C(Cc2ccccc2)NS(=O)(=O)c2ccc3c(c2)CCN3C(C)=O)cc1 (stereo not given) | inactive: 80%
58 | Cc1cc(C)c(NC(=O)c2cc(CN3CCOCC3)on2)c(C)c1 | inactive: 70%
59 | COc1ccc2cc(S(=O)(=O)c3ccccc3F)c(=O)oc2c1 | inactive: 89%
60 | C=CC(=O)NCC1OCCc2ccccc21 (stereo not given) | inactive: 112%
61 | CCOc1ccc(Sc2cc(C(=O)NCCCOC)c3ccccc3n2)cc1 | inactive: 93%
62 | CCOC(=O)c1cc(-c2ccc(C)cc2)n(CCC(=O)NCc2ccccc2)c1C | inactive: 108%
63 | Cc1cccc(OCC(=O)Nc2ccc(C(=O)OCc3cc(=O)n4nc(C5CC5)sc4n3)cc2)c1 | active: -2%
64 | COC(=O)c1ccc(NC(=O)CSc2ccc(-c3cccs3)nn2)cc1 | inactive: 85%
65 | Cc1ccc(-c2noc(-c3cccnc3NCc3ccc(Cl)cc3)n2)cc1 | inactive: 55%
66 | Cc1ccc(-c2nc3scc(CCNS(=O)(=O)c4ccc(C)c(C)c4)n3n2)cc1 | inactive: 79%
67 | O=C(NCCc1nc2ccccc2n1CCOc1ccc(Cl)cc1)C1CCCCC1 | active: 36%
68 | COc1ccccc1CNC(=O)Cn1c(=O)oc2ccccc21 | inactive: 71%
69 | Cc1nn(-c2nc3ccccc3[nH]2)c(N)c1-c1ccccc1 | active: 2%

Row | SMILES | survival
70 | O=C(CSc1nc2c(c(=O)[nH]1)CCCC2)Nc1cccc(O)c1 | inactive: 68%
71 | CCCCn1c(SCC(=O)N2CCCCCC2)nnc1-c1ccoc1C | inactive: 77%
72 | COc1cc2[nH]c(=O)n(CCCC(=O)NCc3ccccc3Cl)c(=O)c2cc1OC | inactive: 77%
73 | COCCCNC(=O)C1CCN(c2nnc(-n3cccc3CNc3ccc(C)cc3)s2)CC1 | inactive: 58%
74 | Cc1cc(OCCn2c(C3CC(=O)N(Cc4ccc(F)cc4)C3)nc3ccccc32)ccc1Cl (stereo not given) | active: 1%
75 | O=C(Cn1c(=O)oc2ccccc21)NCc1ccccc1Cl | inactive: 96%
76 | O=C(CSc1nc(-c2ccco2)nc2cc(=O)[nH]n12)Nc1ccccc1Cl | inactive: 73%
77 | COC(=O)C1=C(C)C(c2ccccc2OC)NC(=O)N1 (stereo not given) | inactive: 85%
78 | CCOc1ccc2ncc3c(-c4ccccc4)nn(CC(=O)Nc4cccc(F)c4)c3c2c1 | inactive: 92%
79 | COc1ccc(-n2c(-c3ccc(F)cc3)cn3c4c(=O)n(C)c(=O)n(C)c4nc23)cc1 | inactive: 72%
80 | Cc1ccc(C)c(N2CCN(CCCNC(=O)Cn3c(-c4cccs4)cc4ccccc43)CC2)c1 | inactive: 72%
81 | Cc1cc(=O)n2c(C(=O)Nc3ccc(C)c(C)c3)c(C(=O)Nc3ccccc3)sc2n1 | inactive: 52%
82 | CN(C)c1ccc(CNc2nc(-c3ccco3)nn2S(=O)(=O)c2ccc(Cl)cc2)cc1 | inactive: 98%
83 | CC1CCCCC1NC(=O)CSc1nccc(=O)[nH]1 (stereo not given) | inactive: 69%
84 | NC(=O)C1CCCN1S(=O)(=O)c1ccc(F)cc1 (stereo not given) | inactive: 59%
85 | CCN(C(=O)CSc1nnc(-c2ccc(Cl)cc2)o1)c1ccccc1 | inactive: 61%
86 | CCc1cccc(C)c1NC(=O)C1CCCN(S(=O)(=O)c2cccc3nsnc23)C1 (stereo not given) | inactive: 89%
87 | COC(=O)c1ccccc1NC(=O)CSc1nc2sc3c(c2c(=O)[nH]1)CCCC3 | inactive: 61%
88 | O=C(CN1C(=O)C2CCCCN2c2ccc(C(=O)N3CCCC3)cc21)NCc1ccccc1 (stereo not given) | inactive: 91%
89 | COCCCNC(=O)Cn1c(=O)n(-c2cccc(C)c2)c(=O)c2c3c(sc21)CN(C(C)=O)CC3 | inactive: 72%
90 | CCCCn1c(CCNC(=O)c2ccc(F)cc2)nc2ccccc21 | inactive: 68%
